This assay addresses Influenza Nucleoprotein (Influenza A virus, UniProt P03466). Particulars: pH 7.

As for nucleozin, the “aggregation of NP (hydrodynamic radius)” value is “results in the aggregation of NP” and the “aggregation of NP (hydrodynamic radius) with added RNA” value is “accelerates the aggregation of NP”.

These data come from patent publication US20120142701A1 (priority 2010, published 2012).
